Data as given in PMC4336329 (PLoS ONE, 2015).
The campaign covered roughly 310,000 compounds. About 14,000 (4.5%) showed an effect of 50% or more. Effects have a minus sign here. This is one part of the list.

Target: human ether-à-go-go-related gene (hERG) potassium channel (human, UniProt Q12809)
Experiment: primary screen, population patch clamp on CHO cells stably expressing hERG
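Note: peak tail current of the secondary pulse compared with the same well before compound.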

Chain of human ether-à-go-go-related gene (hERG) potassium channel (Q12809 whole entry, looked up): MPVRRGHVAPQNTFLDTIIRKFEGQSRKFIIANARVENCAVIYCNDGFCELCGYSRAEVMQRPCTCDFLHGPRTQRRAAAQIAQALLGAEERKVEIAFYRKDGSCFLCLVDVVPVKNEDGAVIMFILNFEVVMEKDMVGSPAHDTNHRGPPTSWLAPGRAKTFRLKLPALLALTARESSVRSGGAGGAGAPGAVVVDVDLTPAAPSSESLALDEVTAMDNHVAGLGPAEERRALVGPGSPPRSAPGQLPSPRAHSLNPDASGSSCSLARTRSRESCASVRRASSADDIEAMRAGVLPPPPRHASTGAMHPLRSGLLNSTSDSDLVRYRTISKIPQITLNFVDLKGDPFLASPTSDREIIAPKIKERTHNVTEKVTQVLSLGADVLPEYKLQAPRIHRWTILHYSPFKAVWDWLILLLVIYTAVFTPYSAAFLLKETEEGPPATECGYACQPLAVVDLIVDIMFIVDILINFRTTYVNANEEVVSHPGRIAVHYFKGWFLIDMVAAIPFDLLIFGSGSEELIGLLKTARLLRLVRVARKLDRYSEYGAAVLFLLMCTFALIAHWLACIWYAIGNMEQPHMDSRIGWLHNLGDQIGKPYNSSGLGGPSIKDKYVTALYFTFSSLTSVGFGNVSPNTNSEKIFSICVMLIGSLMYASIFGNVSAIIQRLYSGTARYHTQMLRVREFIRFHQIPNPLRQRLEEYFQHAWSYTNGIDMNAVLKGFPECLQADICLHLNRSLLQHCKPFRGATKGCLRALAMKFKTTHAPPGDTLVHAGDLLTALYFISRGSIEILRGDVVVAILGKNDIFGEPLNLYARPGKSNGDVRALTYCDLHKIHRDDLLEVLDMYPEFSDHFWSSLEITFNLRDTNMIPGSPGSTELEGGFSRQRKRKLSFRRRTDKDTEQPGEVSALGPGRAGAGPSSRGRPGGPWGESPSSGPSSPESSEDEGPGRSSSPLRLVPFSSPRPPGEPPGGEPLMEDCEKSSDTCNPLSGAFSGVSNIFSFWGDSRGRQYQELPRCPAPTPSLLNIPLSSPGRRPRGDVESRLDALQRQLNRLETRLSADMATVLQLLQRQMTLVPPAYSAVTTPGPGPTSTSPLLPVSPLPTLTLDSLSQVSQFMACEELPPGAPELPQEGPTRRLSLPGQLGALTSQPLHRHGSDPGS

Structure (SMILES)	hERG current change (%, negative = inhibition) at 10uM
O=C(O)C1Oc2cc3ccccc3cc2O1	9.32%
COc1ccc(CNCCc2ccc(Cl)cc2)cc1OCc1ccccc1	-75.6%
COC(=O)CSc1ccc2nnc(-c3ccc(F)cc3)n2n1	-43.7%
CC(C)Oc1ccc(C(CC(=O)O)NC(=O)CSc2ncn[nH]2)cc1 (stereo not shown)	-2.91%
COc1ccccc1C(=O)COC(=O)c1cc(S(=O)(=O)N2CCCCC2)ccc1N1CCOCC1	-6.99%
CCCCc1ccc(NC(=O)N2CCN(c3cc(C)nc4ccccc34)CC2)c(C)c1	-61.6%
COc1ccc(/C=C\c2cc(OC)c(OC)cc2CC[N+](C)(C)C)cc1OC.[I-]	8.77%
CS(=O)(=O)N1CCc2cc(C(=O)Nc3ccc(Br)cc3)ccc21	14.3%
COc1ccc(CCN(C)C2CCCN(C(=O)Cn3cccn3)C2)cc1OC (stereo not shown)	-6.28%
CNC(=S)NNC(=O)Cc1ccc(OC)c(OC)c1	10.7%
CN(C)c1ccc(NC(=S)N(CCc2ccccc2)C2CC(=O)N(c3c(Cl)cccc3Cl)C2=O)cc1 (stereo not shown)	-3.52%
CCn1c(COc2ccc(=O)n(-c3ccccc3)n2)nnc1SCc1cccc(OC)c1	-39.1%
COc1cccc(C2C3=C(CC(C)(C)CC3=O)Nc3cc4c(cc32)OCO4)c1 (stereo not shown)	-12.8%
CC1=C(C(=O)OC2CCCCC2)C(c2ccc(N(C)C)cc2)NC(=O)N1 (stereo not shown)	11.1%
CN(c1ccc(OCC(=O)OCC(=O)NC2CCCC2)cc1)S(=O)(=O)c1ccc2ccccc2c1	3.07%
Cc1ccc(NC(=O)C(c2ccccc2)c2ccccc2)c(O)c1	-8.04%
COc1cccc(C(=O)Nc2cccc(OCC(=O)c3ccccc3)c2)c1	15.8%
Cc1oc(-c2ccccc2Cl)nc1CS(=O)CC(=O)NCCc1ccccc1 (stereo not shown)	-17.5%
Cc1cccc(/C=C2\Sc3ccc(C(=O)N4CCCCC4)cc3N(C)C2=O)c1	12.1%
CC(=O)NCC(=O)N(Cc1ccco1)C1(C(=O)NC2CCCCC2)CCCCC1	-6.49%
COc1cc(NC(=O)c2ccno2)cc(C(=O)Nc2cccc(C(F)(F)F)c2)c1	-44.9%
O=C(N/N=C/c1cccc(OC2CSC2)c1)c1ccccc1O	10.3%

Structure (SMILES)	hERG current change (%, negative = inhibition) at 10uM
CC1CCN(C(=O)CSc2nc(=O)n3ccccc3n2)CC1	8.67%
COc1ccc(N2CCN(c3ccnc4cc(Cl)ccc34)CC2)cc1	-36.5%
CC(C)CN(CC(C)C)c1nc(N)c(C#N)c(CC#N)c1C#N	-36%
CCCn1c(C)cc(C(=O)COc2ccc(-c3nnco3)cc2)c1C	9.87%
COc1ccc(C2=NOC3(CC(=O)N(c4ccc(C)cc4)C3=O)C2)c(OC)c1 (stereo not shown)	4.08%
COc1ccc(CNC(=O)C2CCN(S(=O)(=O)c3ccc4nc5c(c(C(=O)O)c4c3)CC(C)CC5)CC2)cc1 (stereo not shown)	15.1%
Cn1c(CCC(=O)Nc2cc(S(C)(=O)=O)ccc2Cl)nc2cc(S(=O)(=O)N3CCOCC3)ccc21	-25.4%
CC(C)[C@H](NC(=O)C1CC(=O)N(c2ccc3c(c2)OCO3)C1)C(=O)NC1CCCC1 (stereo partly shown)	13.1%
COc1cc(C(=O)NC2=NCCS2)cc(OC)c1OC	3.84%
COc1cc([N+](=O)[O-])ccc1NC(=O)NCCCN1CCCC1=O	4.07%
C=CCNC(=O)C1CC(=O)N(c2ccc(OCC(=O)Nc3ccc(C)cc3)cc2)C1 (stereo not shown)	-9.59%
Cc1ccc(NC2=C(N3CCOCC3)C(=O)c3ccccc3C2=O)cc1	-21.4%
Cc1c(NC(=O)C(C)OC(=O)CCC2CCCC2)c(=O)n(-c2ccccc2)n1C (stereo not shown)	-3.92%
COc1cc(N2C(=O)c3ccccc3C2=O)c(Cl)cc1C(=O)OCC(=O)N1CCOCC1	-9.43%
Cc1cccc(C)c1NC(=O)CNC(=O)C1CC(=O)N(Cc2ccccc2)C1 (stereo not shown)	-3.54%
O=C1CC(NCc2cccs2)C(=O)N1c1ccc(Cl)cc1 (stereo not shown)	-10.3%
Cc1ccn2cc(-c3cccc(NS(C)(=O)=O)c3)nc2c1	-26.2%
Cc1cc(=O)oc2cc(NC(=O)C(C)Oc3ccccc3)ccc12 (stereo not shown)	5.16%
CCOc1ccccc1/C=N/NC(=O)c1cccc(S(=O)(=O)N2CCOCC2)c1	5.25%
CCc1cccc2c(=O)c(C(=O)NCCCOC)c[nH]c12	10.6%
Cc1cccc(C2N(c3nccs3)C(=O)C3CCCN32)c1 (stereo not shown)	0.23%
O=c1oc(-c2ccc(F)cc2)nc2ccsc12	13.5%

Structure (SMILES)	hERG current change (%, negative = inhibition) at 10uM
COc1ccccc1N1CCN(CCCC(=O)c2ccc(F)cc2)CC1	-71.7%
c1ccc2c(c1)CSc1ccccc1C2C1=NCCN1 (stereo not shown)	5.85%
O=C(Oc1ccc2c(-c3ccccc3)cc(=O)oc2c1)c1cccs1	15.2%
CCN(CCn1cccn1)C(=O)CCc1nnc(C2CCCCC2)o1	7%
COc1cccc(C(=O)NNC2=CC(=O)CC(C)(C)C2)c1	-6.27%
Cc1c(C(=O)OC2CCCCC2)sc2nc[nH]c(=O)c12	15.2%
N#Cc1ccc(OCC(O)CN2CCN(C(c3ccccc3)c3ccccc3)CC2)cc1 (stereo not shown)	-72.1%
Cc1ccccc1Cn1cc(S(=O)(=O)CC(=O)N2CCCCC2)c2ccccc21	7.27%
C(/C=C/c1ccccc1)=N/N1CCN(c2ccccc2)CC1	-3.04%
O=C(NC1CC1)c1sc2cc(Cl)ccc2c1Cl	2.56%
O=C(CN(C1CC1)S(=O)(=O)c1ccc(S(=O)(=O)N2CCCCCC2)cc1)Nc1ccccc1	14.8%
O=C(COc1ccccc1Cl)N1CCN(c2ccccn2)CC1	-9.18%
CCCOc1c(OC)cc(Cl)cc1C1NC(=O)NC(C)=C1C(=O)NCc1ccccc1 (stereo not shown)	5.87%
COc1ccc(N2CCN(C(CNC(=O)C(=O)NCc3cccnc3)c3ccco3)CC2)cc1 (stereo not shown)	-4.27%
COc1cc(OC)c(N(C)C(=O)c2cn(C)c(=O)c3cc(OC)c(OC)cc23)cc1Cl	-15.9%
O=C(COC(=O)c1ccccn1)Nc1ccccc1Cl	-14.7%
N#Cc1ccc(NC(=O)c2cccs2)nc1	19%
Cc1ccc(Nc2nc(=O)c3cccnc3s2)cc1	-7.04%
Cc1cc(/C=C2\NC(=O)N(Cc3ccc(Cl)cc3)C2=O)c(C)n1C	1.03%
CCOC(=O)c1nc2sc3c(c2c(=O)[nH]1)CCCC3	3.84%
O=C1c2ccccc2C(=O)N1Cc1nc2ccccc2c(=O)n1-c1cccnc1	4.77%
C=CCNC(=S)N/N=C1\CCS(=O)(=O)c2ccccc21	-34.7%

Structure (SMILES)	hERG current change (%, negative = inhibition) at 10uM
Cc1ccc(OCC(=O)NC2CCCCCC2)cc1C	19.5%
Cc1cccc(Cn2c(N3CCN(CCO)CC3)nc3c2c(=O)[nH]c(=O)n3C)c1	-23.5%
CCOC(=O)N1CCC(NC(=O)c2cc(C(=O)NCC(OC)OC)ccc2CO)CC1	14.1%
CC(C)CCNC(=S)Nc1ccc(Br)cc1	-2.37%
Cc1ccc(NC(=O)CN(C)C(=O)CSc2nnc(N)s2)cc1	-0.69%
Cc1ccc(S(=O)(=O)Nc2ccc3c(c2)c2c(n3S(=O)(=O)c3ccc(C)cc3)CCCC2=O)cc1	-24.9%
O=C(Nc1cccc(Cl)c1)c1ccccc1	-8.19%
COC(=O)c1ccc(Cl)c(-c2ccc(/C=N/NC(=O)Nc3ccccc3)o2)c1	18.3%
CCN(CC)CCSc1nc(O)c(Cc2ccccc2)c(=O)n1-c1ccccc1.Cl	15.8%
NC(=O)c1cccc2c3c([nH]c12)CCCC3	-1.35%
CCC1(CC)Cc2ccccc2-c2nc(NN)[nH]c(=O)c21	13.7%
COc1ccc(-n2ncc3c(N4CCN(c5cccc(C)c5C)CC4)ncnc32)cc1	17.3%
C=CCN(Cc1cccc(OC)c1OC)S(=O)(=O)N(C)C	0.212%
CS/C(=C(/C#N)S(=O)(=O)c1ccc(Cl)cc1)N1CCOCC1	-1.37%
CCCC(=N)C1=C(O)CC(CC(C)SCC)CC1=O (stereo not shown)	-33.3%
CC(c1ccon1)N(C)Cc1cn[nH]c1-c1ccc(F)cc1F (stereo not shown)	-7.46%
Cc1ccc(CNC(=O)CN(C)S(=O)(=O)c2cccs2)cc1	0.372%
CCCOc1ccc(N2C(=O)CC(N(Cc3ccco3)C(=O)CCC(=O)O)C2=O)cc1 (stereo not shown)	21%
O=C(c1cc(S(=O)(=O)N2CCOCC2)ccc1Cl)N1CCOCC1	6.45%
Cc1nn(C)c(Oc2ccccc2)c1CCNS(=O)(=O)c1ccccc1	-2.05%
COc1ccc(CSc2nc3ccccc3c(=O)[nH]2)cc1F	36.6%
COCCN(Cc1cc2cc3c(cc2nc1Cl)OCO3)C(=O)c1cccc(C)c1	-64.3%
